# Experimental data as given in the supplement of paper PMC8728848.
# The list shows a part of the results.
# Tests used:
# Experiment in all cases: glycan array binding signal (z-score within array); higher = stronger binding
# Settings in all cases: glycan notation: IUPAC condensed, linker removed
# [1] = molecular target: Neu5Ac(a2-3)Gal(b1-3)GalNAc(b1-3)Gal(b1-4)GlcNAc
# Method in brief: (§1)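 The Consortium for Functional Glycomics database supplied 3228 glycan arrays, of which those lacking an available protein sequence were dropped. The binding signal, a within-array Z-score, was averaged across arrays of the same protein sequence and across linkers. Negative scores can be read as non-binding.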
# [2] = molecular target: Neu5Ac(a2-3)Gal(b1-3)GalNAc(b1-4)[Neu5Ac(a2-3)]Gal(b1-4)Glc
# Method in brief: as §1
# [3] = molecular target: Neu5Ac(a2-3)Gal(b1-3)GalNAc6S
# Method in brief: as §1
# [4] = molecular target: Neu5Ac(a2-3)Gal(b1-3)GlcNAc
# Method in brief: as §1
# [5] = molecular target: Neu5Ac(a2-3)Gal(b1-3)GlcNAc6S
# Method in brief: as §1
# [6] = molecular target: Neu5Ac(a2-3)Gal(b1-3)[Fuc(a1-4)]GlcNAc
# Method in brief: as §1
# [7] = molecular target: Neu5Ac(a2-3)Gal(b1-3)[Fuc(a1-4)]GlcNAc(b1-3)Gal(b1-4)[Fuc(a1-3)]GlcNAc
# Method in brief: as §1
# [8] = molecular target: Neu5Ac(a2-3)Gal(b1-3)[Neu5Ac(a2-3)Gal(b1-4)]GlcNAc
# Method in brief: as §1
# [9] = molecular target: Neu5Ac(a2-3)Gal(b1-3)[Neu5Ac(a2-6)]GalNAc
# Method in brief: as §1
# Neu5Ac(a2-3)Gal(b1-4)Glc = molecular target: Neu5Ac(a2-3)Gal(b1-4)Glc
# Method in brief: as §1
# [10] = molecular target: Neu5Ac(a2-3)Gal(b1-4)GlcNAc
# Method in brief: as §1
# [11] = molecular target: Neu5Ac(a2-3)Gal(b1-4)GlcNAc(b1-2)Man(a1-3)[Neu5Ac(a2-3)Gal(b1-4)GlcNAc(b1-2)Man(a1-6)]Man(b1-4)GlcNAc(b1-4)GlcNAc
# Method in brief: as §1
# [12] = molecular target: Neu5Ac(a2-3)Gal(b1-4)GlcNAc(b1-3)Gal(b1-4)GlcNAc
# Method in brief: as §1
# [13] = molecular target: Neu5Ac(a2-3)Gal(b1-4)GlcNAc(b1-3)Gal(b1-4)GlcNAc(b1-3)Gal(b1-4)GlcNAc
# Method in brief: as §1
# [14] = molecular target: Neu5Ac(a2-3)Gal(b1-4)GlcNAc(b1-3)Gal(b1-4)[Fuc(a1-3)]GlcNAc
# Method in brief: as §1
# [15] = molecular target: Neu5Ac(a2-3)Gal(b1-4)GlcNAc6S
# Method in brief: as §1
# [16] = molecular target: Neu5Ac(a2-3)Gal(b1-4)[Fuc(a1-3)]GlcNAc
# Method in brief: as §1
# [17] = molecular target: Neu5Ac(a2-3)Gal(b1-4)[Fuc(a1-3)]GlcNAc(b1-3)Gal
# Method in brief: as §1
# [18] = molecular target: Neu5Ac(a2-3)Gal(b1-4)[Fuc(a1-3)]GlcNAc(b1-3)Gal(b1-4)GlcNAc
# Method in brief: as §1
# [19] = molecular target: Neu5Ac(a2-3)Gal(b1-4)[Fuc(a1-3)]GlcNAc(b1-3)Gal(b1-4)[Fuc(a1-3)]GlcNAc(b1-3)Gal(b1-4)[Fuc(a1-3)]GlcNAc
# Method in brief: as §1
# [20] = molecular target: Neu5Ac(a2-3)Gal(b1-4)[Fuc(a1-3)]GlcNAc6S
# Method in brief: as §1
# [21] = molecular target: Neu5Ac(a2-3)Gal6S(b1-4)GlcNAc
# Method in brief: as §1
# [22] = molecular target: Neu5Ac(a2-3)Gal6S(b1-4)[Fuc(a1-3)]GlcNAc
# Method in brief: as §1
# Neu5Ac(a2-3)GalNAc = molecular target: Neu5Ac(a2-3)GalNAc
# Method in brief: as §1
# [23] = molecular target: Neu5Ac(a2-3)GalNAc(b1-4)GlcNAc
# Method in brief: as §1
# [24] = molecular target: Neu5Ac(a2-3)[GalNAc(b1-4)]Gal(b1-4)Glc
# Method in brief: as §1
# [25] = molecular target: Neu5Ac(a2-3)[GalNAc(b1-4)]Gal(b1-4)GlcNAc
# Method in brief: as §1
# [26] = molecular target: Neu5Ac(a2-3)[Neu5Ac(a2-6)]GalNAc
# Method in brief: as §1
# Neu5Ac(a2-6)Gal = molecular target: Neu5Ac(a2-6)Gal
# Method in brief: as §1
# Neu5Ac(a2-6)Gal(b1-4)Glc = molecular target: Neu5Ac(a2-6)Gal(b1-4)Glc
# Method in brief: as §1
# [27] = molecular target: Neu5Ac(a2-6)Gal(b1-4)GlcNAc
# Method in brief: as §1
# [28] = molecular target: Neu5Ac(a2-6)Gal(b1-4)GlcNAc(b1-3)Gal(b1-4)GlcNAc
# Method in brief: as §1
# [29] = molecular target: Neu5Ac(a2-6)Gal(b1-4)GlcNAc(b1-3)Gal(b1-4)[Fuc(a1-3)]GlcNAc(b1-3)Gal(b1-4)[Fuc(a1-3)]GlcNAc
# Method in brief: as §1
# [30] = molecular target: Neu5Ac(a2-6)Gal(b1-4)GlcNAc6S
# Method in brief: as §1
# Neu5Ac(a2-6)GalNAc = molecular target: Neu5Ac(a2-6)GalNAc
# Method in brief: as §1
# [31] = molecular target: Neu5Ac(a2-6)GalNAc(b1-4)GlcNAc
# Method in brief: as §1
# Neu5Ac(a2-8)Neu5Ac = molecular target: Neu5Ac(a2-8)Neu5Ac
# Method in brief: as §1
# [32] = molecular target: Neu5Ac(a2-8)Neu5Ac(a2-3)Gal(b1-4)Glc
# Method in brief: as §1
binder,measurement,setting,value
FaeGac (Escherichia coli) (protein) WMTGDFNGSVDIGGSITADDYRQKWEWKVGTGLNGFGNVLNDLTNGGTKLTITVTGNKPILLGRTKEAFATPVTGGVDGIPHIAFTDYEGASVVLRKPDGETNKNGLAYFVLPMKNAGGTKVGSVKVNASYAGVLGRGGVTSADGELLSLFADGLSSIFYGGLPRGSELSAGSAAAARTKLFGSLSRDDILGQIQRVNANVTSLVDVAGSYRENMEYTDGNVVSAAYALGIANGQTIEATFNQAVTTSTQWSAPLNVAITYY,glycan array binding signal (z-score),[1],0.164
same,glycan array binding signal (z-score),[2],0.693
same,glycan array binding signal (z-score),[3],2.57
same,glycan array binding signal (z-score),[4],-0.167
same,glycan array binding signal (z-score),[5],-0.905
same,glycan array binding signal (z-score),[6],0.445
same,glycan array binding signal (z-score),[7],-0.262
same,glycan array binding signal (z-score),[8],0.212
same,glycan array binding signal (z-score),[9],-0.501
same,glycan array binding signal (z-score),Neu5Ac(a2-3)Gal(b1-4)Glc,-0.81
same,glycan array binding signal (z-score),[10],-0.528
same,glycan array binding signal (z-score),[11],0.674
same,glycan array binding signal (z-score),[12],0.714
same,glycan array binding signal (z-score),[13],-0.615
same,glycan array binding signal (z-score),[14],-0.824
same,glycan array binding signal (z-score),[15],2.73
same,glycan array binding signal (z-score),[16],1.26
same,glycan array binding signal (z-score),[17],-0.443
same,glycan array binding signal (z-score),[18],0.987
same,glycan array binding signal (z-score),[19],0.687
same,glycan array binding signal (z-score),[20],0.715
same,glycan array binding signal (z-score),[21],-0.782
same,glycan array binding signal (z-score),[22],0.096
same,glycan array binding signal (z-score),Neu5Ac(a2-3)GalNAc,-0.327
same,glycan array binding signal (z-score),[23],-0.706
same,glycan array binding signal (z-score),[24],1.31
same,glycan array binding signal (z-score),[25],-0.863
same,glycan array binding signal (z-score),[26],-0.407
same,glycan array binding signal (z-score),Neu5Ac(a2-6)Gal,-0.713
same,glycan array binding signal (z-score),Neu5Ac(a2-6)Gal(b1-4)Glc,-0.378
same,glycan array binding signal (z-score),[27],0.04
same,glycan array binding signal (z-score),[28],-0.875
same,glycan array binding signal (z-score),[29],1.87
same,glycan array binding signal (z-score),[30],0.045
same,glycan array binding signal (z-score),Neu5Ac(a2-6)GalNAc,1.98
same,glycan array binding signal (z-score),[31],-0.438
same,glycan array binding signal (z-score),Neu5Ac(a2-8)Neu5Ac,0.421
same,glycan array binding signal (z-score),[32],0.612
